We go through 90 molecules from PubChem BioAssay AID463173 (ICCB-Longwood Screening Facility, Harvard Medical School, 2010).

Hit rate of the full screen: of about 52,000 compounds, about 4,300 (8.3%) were called active. Cut-off read from the data, not from the text of the source: active = survival mostly below about 52% (no sharp cut-off); inactive = mostly above about 56%. The list shows a part of the results.

The experiment relates to DeltatarO mutant. Description: S. aureus survival, RN4220 and DeltatarO strains – OD600, teichoic acid synthesis inhibitors, primary screen (AID 463173). The note with it: S. aureus RN4220 wild type/DeltatarO growth, OD600, 18 h, stronger effect = lower value, screened at 18.75 µg/mL (by protocol).
As to `CC(C)(C)OC(=O)N1CCC(c2c(C(=O)NCc3ccco3)cnn2-c2ccccc2)CC1`, the survival is inactive: 88%. The result for `CCOc1ccc(S(=O)(=O)c2cn(Cc3ccccc3)c3ccc(OCC)cc3c2=O)cc1` reads inactive: 72%; that for `CCc1ccc(S(=O)(=O)Nc2cccc(-c3ccc(N4CCC(C)CC4)nn3)c2)s1`, inactive: 64%; that for `Cc1cc(=O)n2nc(N3CCC(C(=O)NCc4ccccc4)CC3)sc2n1`, inactive: 95%.

In the case of `Cc1ccc(NC(=O)Cn2cnc3nc4c(cc3c2=O)CCCC4)cc1Cl`, the survival is inactive: 94%.

With `CCc1ccc(CNC(=O)c2cnc3sc(N4CCCCC4)nn3c2=O)cc1`, the survival is inactive: 99%. In the case of `CCn1c(=O)cc(SCC(=O)NCc2ccccc2OC)c2ccccc21`, the survival was inactive: 66%. As for `COc1ccc2cc(C(=O)NCc3ccc4c(c3)CCN4C(=O)c3ccccc3)[nH]c2c1`, the survival is active: -1%. `O=C(NCCn1cnc2cccnc21)Nc1ccccc1-c1ccccc1`: the survival was inactive: 103%. As for `COc1ccc(C(=O)Nc2ccc(OCc3cc(=O)n4ccsc4n3)cc2)cc1OC`, the survival was inactive: 110%. The result for `COC(=O)c1cc(S(=O)(=O)NCC2CCN(Cc3ccccc3F)CC2)c[nH]1` reads inactive: 82%; that for `CN1C(=O)C2(c3ccccc31)N(c1ccc(F)c(Cl)c1)C(=O)CS2(=O)=O` (stereo not given), inactive: 74%. Take `Cc1ccc(Cl)cc1NC(=O)CC1SC(N)=NC1=O` (stereo not given): the survival is inactive: 99%.

Regarding `CCC(=O)N1CCc2cc(S(=O)(=O)CCC(=O)N3CCN(c4ccc(C(C)=O)cc4)CC3)ccc21`, the survival is inactive: 97%.

With `CCOc1ccc(-c2cn3c(n2)sc2cc(C(=O)NCCc4ccc(OC)c(OC)c4)ccc23)cc1`, the survival was active: 49%. `Cc1ccc(C2=NN(CC(=O)NCCc3ccc(Cl)cc3)C(=O)CC2)cc1`: the survival was inactive: 117%. Turning to `Nc1ccc2nc(CN3CCOCC3)[nH]c2c1`, the survival was inactive: 88%. Take `O=C(Nc1ccc(F)cc1Cl)C1Cc2ccccc2N1C(=O)c1ccccc1` (stereo not given): the survival was inactive: 85%. Consider `O=C(CCn1nc(-c2ccc(Cl)cc2)c2ccccc2c1=O)Nc1ccc(OC(F)(F)F)cc1`, for which the survival was inactive: 135%. On to `Cc1ccc(Cl)cc1N1CCN(C(=O)C2CCN(S(=O)(=O)c3ccc4c(c3)oc(=O)n4C)CC2)CC1`, for which the survival is inactive: 80%.

`CC(=O)c1cccc(NC(=O)c2nc3ccccc3nc2N2CCCCC2)c1`: the survival was inactive: 71%. Consider `COc1ccc(OC)c(CNC(=O)C2CCN(c3ncnc4c3nc3n4CCCCC3)CC2)c1`, for which the survival is inactive: 91%. `Cc1cc(C)nc(Nc2ccc(S(N)(=O)=O)cc2)n1`: the survival was inactive: 83%. Take `CCOc1cc(C(=O)NCCc2csc(-c3ccc(C)cc3)n2)cc(OCC)c1OCC`: the survival was inactive: 87%. Take `Cc1ccc(S(=O)(=O)/N=C(\N)Nc2nc3ccccc3o2)cc1`: the survival was inactive: 84%. Take `CN(C(=O)c1cc2c(=O)n3ccccc3nc2n1C)c1ccccc1`: the survival is inactive: 52%. For `COc1ccc(CCNC(=O)CCn2c(=O)c3cccn3c3cccnc32)c(OC)c1OC`, the survival is inactive: 83%. In the case of `Cc1cccc(NC(=O)N2CCC(n3c(C)nc4cccnc43)CC2)c1`, the survival is inactive: 79%. For the molecule `O=C1C=CC(=O)C(c2ccc(Cl)cc2)=C1`, the survival is inactive: 66%. The result for `O=C(CSc1nccn1Cc1ccccc1)Nc1ccc2c(c1)OCO2` reads inactive: 90%. In the case of `CCOC(=O)N1CCC(NC(=O)c2ccc3c(c2)N(Cc2cc(C)ccc2C)C(=O)c2ccccc2S3=O)CC1` (stereo not given), the survival was active: 42%. The result for `CCC(C)(C)NC(=O)Cn1c(=O)ccc2cc(S(=O)(=O)N3CCC(C)CC3)ccc21` reads inactive: 92%; that for `CCOc1ccc(OCC)c(Nc2cc(C)nc3nc(-c4ccco4)nn23)c1`, active: 17%. The result for `CC(=O)N1c2ccc(S(=O)(=O)N3CCCCCC3)cc2CC1C(=O)NCc1ccccc1F` (stereo not given) reads inactive: 119%. As to `Cc1ccc(CNc2ccc(-c3nc(-c4ccccn4)no3)cc2[N+](=O)[O-])cc1`, the survival is inactive: 104%. The result for `O=C(c1ccc([N+](=O)[O-])cc1)N1CCN(c2ccc(Nc3ccccc3)nn2)CC1` reads inactive: 83%. In the case of `CCOc1ccc(CCNC(=O)CN2C(=O)c3cccnc3Oc3ccc(Cl)cc32)cc1` it was inactive: 94%; in that of `CC(=O)Nc1nnc(SCc2cc(=O)c3cccc(Cl)c3[nH]2)s1`, inactive: 80%; in that of `CCOc1ccc(CCNC(=O)Cn2nnc(-c3ccc(C(F)(F)F)cc3)n2)cc1OCC`, inactive: 82%. The result for `O=C1CC(=O)SC(c2ccccc2)=N1` reads inactive: 96%. For the molecule `Cn1cc(CCCC(=O)NCc2ccccc2Cl)c2ccccc21`, the survival is inactive: 75%. The result for `CCOC(=O)c1c(NC(=O)CSc2nc(-c3ccccc3)cc(C(F)(F)F)n2)sc(C)c1C` reads inactive: 48%; that for `O=C(CCC1CCCC1)NCc1ccccn1`, inactive: 88%. The result for `COc1ccc(OC)c(NC(=O)N2c3ccccc3Sc3ccccc32)c1` reads active: 5%.

Turning to `Cc1ccc(OCc2nc(-c3ccc(C(=O)N4CCN(c5ccccc5)CC4)cc3)oc2C)cc1`, the survival is inactive: 80%. On to `O=C(NCc1ccccc1Cl)c1ccc(Nc2nc3ccccc3n3nnnc23)cc1`, for which the survival is inactive: 84%. In the case of `Cc1c(NC(=O)Nc2ccc(F)c(Cl)c2)c(=O)n(-c2ccccc2)n1C` it was inactive: 88%; in that of `Cc1nn(CCC(=O)N2CCN(c3ccccc3)CC2)c(C)c1S(=O)(=O)N1CCCC1`, active: -5%; in that of `CCc1cnc2c(c1SCC(=O)N1CCC(C)CC1)c(=O)n(C)c(=O)n2C`, inactive: 92%. On to `CCCCN(CCCC)CCNC(=O)c1cn(C)c2ccc(S(=O)(=O)N3CCCC3)cc2c1=O`, for which the survival is inactive: 150%. Regarding `CCOC(=O)c1c(S(=O)(=O)N2CCC(C(=O)Nc3ccc(OCC)cc3)CC2)c(C)n(C)c1C`, the survival is inactive: 99%. Turning to `CC1CCN(S(=O)(=O)c2ccc3nc(Nc4ccc(C#N)cc4)ccc3c2)CC1`, the survival is inactive: 86%. `N#CC(C#N)=C(N1CCOCC1)C(F)(F)F`: the survival is inactive: 98%.

In the case of `COc1cccc(CNC(=O)C2CCN(S(=O)(=O)N3CCC(C)CC3)CC2)c1`, the survival is inactive: 67%. Turning to `COc1ccccc1CNS(=O)(=O)c1ccc(F)c(C(=O)Nc2cc(Cl)ccc2OC)c1`, the survival is inactive: 79%.

With `O=C(NCC(c1cccnc1)N1CCc2ccccc2C1)C(=O)Nc1ccccc1` (stereo not given), the survival is inactive: 81%. Consider `Cc1cccc(OCCSc2nc(-c3cccs3)nc3cc(=O)[nH]n23)c1`, for which the survival was inactive: 93%. In the case of `COc1ccccc1N1CCN(S(=O)(=O)c2c(C)nc3sc(C)c(C)n3c2=O)CC1` it was inactive: 83%; in that of `CSc1ccc(CNC(=O)c2cc3cc(S(=O)(=O)N4CCCCC4)ccc3n2C)cc1`, inactive: 95%; in that of `CCOC(=O)c1c(Nc2cc(C)cc(C)c2)nnc(-c2ccccc2)c1-c1ccccc1`, active: 32%. In the case of `CCCCC(=O)OC1=C(C(=O)c2ccccc2)N(C)S(=O)(=O)c2ccccc21` it was inactive: 104%; in that of `Cn1nc(-c2ccc(C(=O)Nc3cccc(C(F)(F)F)c3)cc2)c2ccccc2c1=O`, inactive: 57%. In the case of `CC(=O)NC1C(=O)N=C(SCC(=O)NC(C)c2ccccc2)NC1=O` (stereo not given) it was inactive: 75%. For `O=C(Nc1ccc(F)cc1F)c1cnn(-c2ccc(F)cc2)c1-n1cccc1`, the survival is inactive: 80%. In the case of `CCOc1ccccc1NC(=O)CN1c2ccccc2S(=O)(=O)c2ccccc21`, the survival is active: 37%. As for `COc1ccc(CNS(=O)(=O)c2cnc(N)nc2)cc1`, the survival was active: -2%.

Take `CCOc1ccc(NS(=O)(=O)c2ccc3[nH]cc(C(=O)NCc4ccccc4)c(=O)c3c2)cc1`: the survival is inactive: 79%. With `Cc1cccc(CNC(=O)c2ccc3c(c2)N(C)C(=O)C2CCCCN32)c1` (stereo not given), the survival was active: 0%. For the molecule `COc1cccc2c1Oc1ncccc1N(C(=O)Nc1cccc(Cl)c1)C2`, the survival is inactive: 79%. In the case of `COC(=O)C1=CN(CCCN2CCCC2=O)C=C(C(=O)OC)C1c1cccc(F)c1`, the survival was inactive: 74%. In the case of `O=C(CCn1c(=O)c2cccn2c2ccccc21)Nc1ccc(F)cc1` it was inactive: 50%. Take `CCCCCNC(=O)c1ccc2c(c1)nc(C)n2-c1cccc(C)c1`: the survival is active: 0%.

Consider `O=C(NCc1ccccc1Cl)C1COc2ccccc2O1` (stereo not given), for which the survival was inactive: 98%. For `Cc1cc(C)n(-c2nnc(Nc3cc(Cl)ccc3C)c3ccccc23)n1`, the survival was inactive: 67%. Turning to `Cc1ccc(C)c(NC(=O)Cn2c(=O)ccc3cc(S(=O)(=O)N4CCCC4)ccc32)c1`, the survival is inactive: 64%. In the case of `O=C1C2=C(Nc3ccccc3SC2c2ccccc2C(F)(F)F)c2ccccc21` (stereo not given), the survival was active: 24%. On to `O=C(NCc1cccs1)c1ccc(CSc2nc3cccnc3n2Cc2ccccc2)cc1`, for which the survival was inactive: 103%. Turning to `O=C(Nc1ccccc1N1CCN(c2ccccc2)CC1)c1ccccc1`, the survival was inactive: 110%. For `Cc1nc(-c2ccc(C)c(S(=O)(=O)N3CCC(C(=O)Nc4ccc(Cl)cc4)CC3)c2)no1`, the survival is inactive: 128%. In the case of `Cc1ccccc1NC(=O)c1ccc(F)c(S(=O)(=O)N(C)C2CCCCC2)c1` it was inactive: 86%; in that of `COc1ccc(NC(=O)c2sc3nc4c(cc3c2N)CCCCCC4)cc1OC`, inactive: 53%. As for `Cc1nn(C)c(C)c1S(=O)(=O)N(CC(=O)N1CCN(c2ccccc2)CC1)c1ccc(C(C)C)cc1`, the survival is inactive: 79%. For the molecule `CCOc1ccccc1NC(=O)C1CCN(S(=O)(=O)c2ccc3[nH]c4c(c3c2)CCCCC4)CC1`, the survival was inactive: 101%. On to `CCOc1ccc(CCNC(=O)c2cccc(-n3c(C)nc4cccnc43)c2)cc1`, for which the survival was inactive: 90%. With `COc1ccc(-c2nnc3c4ccccc4c(-c4ccccc4)nn23)cc1`, the survival is inactive: 96%. `O=C(Nc1ccccc1F)c1ccc(-c2ccccc2)s1`: the survival is inactive: 81%.

For the molecule `c1ccc(CCn2nnnc2C(c2cccnc2)N2CCCCC2)cc1` (stereo not given), the survival is inactive: 82%. In the case of `O=C(NC1CCS(=O)(=O)C1)Sc1ccccc1` (stereo not given) it was inactive: 96%; in that of `CCOC(=O)c1nnn(CC(=O)NC(=O)Nc2cccc(CC)c2)c1C(=O)OCC`, inactive: 64%; in that of `CCN(CC)C(=O)c1sc2c(c1C)c(=O)n(-c1ccc(Cl)c(Cl)c1)c(=O)n2CC(=O)Nc1cccc(OC)c1`, inactive: 70%.
